# Source: the BET-seq Pho4 binding data (Le et al. 2018)
# The other results are listed elsewhere or left out. The energies were worked out here from pooled read counts, against the library average; single values are noisy.
# Target: T1, Pho4 (S. cerevisiae) (UniProt P07270)
# T1 sequence: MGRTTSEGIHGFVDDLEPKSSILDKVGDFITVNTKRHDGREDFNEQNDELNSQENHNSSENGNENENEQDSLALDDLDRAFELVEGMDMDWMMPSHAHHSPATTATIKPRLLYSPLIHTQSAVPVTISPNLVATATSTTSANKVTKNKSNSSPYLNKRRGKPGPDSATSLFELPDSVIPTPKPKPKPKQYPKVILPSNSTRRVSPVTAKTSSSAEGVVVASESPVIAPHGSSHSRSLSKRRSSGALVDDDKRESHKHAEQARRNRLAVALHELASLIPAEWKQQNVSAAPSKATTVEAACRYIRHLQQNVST
# Assay: relative binding free energy (BET-seq); higher = weaker binding
# Conditions: reference: library average
row,Sequence,relative binding free energy [kJ/mol]
1,TTTGTCACGTGTGTTA,0.46
2,TTGCCCACGTGAGGGG,0.418
3,TCGGGCACGTGTTGTA,-0.377
4,GAAAGCACGTGAGGTG,1.3
5,TTGGTCACGTGTCTAT,0.544
6,GTATACACGTGAGGAG,1.51
7,AGTGTCACGTGTTAGT,0.502
8,ATCTGCACGTGTATGT,-0.126
9,TACGTCACGTGCGTTT,0.502
10,TGTTGCACGTGTACGA,-0.502
11,TGGGGCACGTGGTTCT,-0.586
12,TGGTCCACGTGGTTTA,0
13,TAGTGCACGTGACGTT,0.251
14,TGTCGCACGTGAATGG,0.753
15,TAAGGCACGTGATCGG,-0.418
16,GTCTGCACGTGGTGGG,0.293
17,TGTATCACGTGAATCT,1.51
18,GTCAACACGTGAGTTG,1.3
19,TTCGGCACGTGTAATG,0.544
20,CGTGACACGTGTGGTG,0.418
21,AGTTTCACGTGAGCAT,1.13
22,AGTAACACGTGATGGA,0.46
23,TCGTGCACGTGAGGGC,0.502
24,GATTACACGTGATGGG,1.05
25,GCGTTCACGTGTTTAA,1.38
26,AGATCCACGTGGTGTA,0.167

row,Sequence,relative binding free energy [kJ/mol]
1,GTCTTCACGTGGGTCT,0.837
2,TGAATCACGTGTGGAG,0.879
3,GGGATCACGTGTCGAG,1.09
4,TTTCTCACGTGAGGGC,1.92
5,TGAACCACGTGAGGGG,0.377
6,TGACGCACGTGGTTTA,-0.711
7,GATGGCACGTGTAATG,0.377
8,TCGTACACGTGTGGAG,0.377
9,ATGGTCACGTGGAGTC,0.0418
10,GGTTGCACGTGTGCTG,0.544
11,CAGTTCACGTGGTGGA,1.21
12,TTTTCCACGTGGTCGT,0.126
13,TGTGACACGTGGATCT,0.0418
14,TAGTACACGTGATGTT,1.05
15,TCTGGCACGTGGGCTT,-0.46
16,ATTTTCACGTGAATTA,1.97
17,AAGTCCACGTGGGGGT,-1.05
18,ATGGGCACGTGGTAAT,-0.502
19,CATGTCACGTGTGTAT,0.837
20,TGGGTCACGTGAGACA,1.05
21,TATGACACGTGTCTAG,0.418
22,TTATTCACGTGCGGCT,0.92
23,AATCGCACGTGGGGAT,-0.251
24,AGGTTCACGTGCGTAA,0.418
25,AAAAACACGTGGGGGA,-0.669
26,GGGTGCACGTGAAGAT,1.3

row,Sequence,relative binding free energy [kJ/mol]
1,TTTGTCACGTGGCGAG,-0.0418
2,ATGAGCACGTGCGTAG,-0.753
3,TAGGACACGTGTGCGG,-0.0837
4,GTCGGCACGTGGCTGG,-0.251
5,GTGGTCACGTGGCTAA,0.544
6,TAATTCACGTGTGTGG,1.05
7,GGGGACACGTGTAGAA,0.418
8,GTATACACGTGAGGGC,1
9,ATATGCACGTGGGCAT,-1
10,ACTTGCACGTGGGTGT,-0.167
11,GGGATCACGTGTGTGT,0.92
12,TTTGGCACGTGAGCGC,0.167
13,GTTTCCACGTGTTCAG,0.92
14,CTGTGCACGTGTTGTC,-0.418
15,CTAGTCACGTGGGGAG,0.0837
16,TCTGGCACGTGAGTGC,0.586
17,GGGGGCACGTGCGGTT,-0.377
18,GGCCACACGTGGGGTG,0.0837
19,TTCGTCACGTGGGGTA,-0.335
20,TGGTGCACGTGTGCGA,-0.293
21,GGTTTCACGTGTAATA,1.21
22,GGCTACACGTGGGTTA,0.167
23,ATTATCACGTGCCGGT,0.628
24,GGCTACACGTGTCGGG,0.795
25,CGAGGCACGTGGAATG,-0.46
26,CATGACACGTGGGAGT,-0.251

row,Sequence,relative binding free energy [kJ/mol]
1,AGAATCACGTGGGTAG,0
2,CTGGGCACGTGCGGAT,-0.586
3,GATGACACGTGGCGGG,0.335
4,GATGTCACGTGAGCTG,1.72
5,TAGGCCACGTGGTTAT,-0.92
6,AGTGTCACGTGTTAAC,0.209
7,GTGGCCACGTGATATT,0.628
8,ATCTTCACGTGTAGTA,0.711
9,GTTATCACGTGTTCGG,1
10,TGGAACACGTGATCGG,0.837
11,GAGTGCACGTGGGTTA,-0.502
12,GGTTGCACGTGTATGA,0.628
13,TGGGGCACGTGTAGCA,-0.251
14,GGCATCACGTGGGGGC,0.753
15,TTTTACACGTGAGGTT,1.51
16,GTTGTCACGTGATTCA,1
17,TTTCACACGTGTCGGT,0.167
18,GGGGGCACGTGCACGG,-0.879
19,TGATTCACGTGGTAGT,0.962
20,GGGTGCACGTGGATAG,0.293
21,TTGTACACGTGGCGGC,0.126
22,AATGGCACGTGGGAGC,-0.92
23,ATGGACACGTGCGTTG,-0.126
24,GGGGCCACGTGAGTCT,1.42
25,AGGAGCACGTGTGGTG,-0.335
26,CAATTCACGTGGGGAT,0.753

row,Sequence,relative binding free energy [kJ/mol]
1,GAAATCACGTGGGTCG,0.669
2,TATTTCACGTGCGCTG,1
3,TGTCTCACGTGCTTGG,0.669
4,TGTTTCACGTGTGGTC,1.46
5,GGAGTCACGTGTGAGA,1.17
6,TTGGTCACGTGGGTGT,0.167
7,TTTTACACGTGCGTAT,-0.167
8,TATATCACGTGTTAGC,1.46
9,TAGTGCACGTGTTAGT,0.46
10,GTATGCACGTGGATAG,-0.669
11,TAGTGCACGTGAATAG,0.418
12,AGTGGCACGTGGCGGC,-0.628
13,CACTTCACGTGGTGAG,1.26
14,AAGCCCACGTGGGGTG,-0.879
15,GATATCACGTGGAGGG,0.418
16,GGTAGCACGTGGGGCT,-1.17
17,ACTTTCACGTGTAGTG,0.753
18,TGAAGCACGTGATTTA,0.377
19,GGGGTCACGTGCTGAA,0.46
20,GCTAGCACGTGGGTGA,-0.586
21,TTAGGCACGTGTCGGG,-0.46
22,GACGGCACGTGTATGT,0.335
23,CTGTGCACGTGGATAG,0.209
24,GAGGGCACGTGGCTCG,-0.879
25,CTGGACACGTGTCGGG,-0.0418
26,TGGTTCACGTGTCGTT,1.72

row,Sequence,relative binding free energy [kJ/mol]
1,AGGCACACGTGGGTTA,-0.669
2,TGATACACGTGGGAGT,-0.418
3,ATCAGCACGTGAGTGG,0.753
4,GCGGCCACGTGGGTAG,-1
5,TGTGCCACGTGATGTA,0.293
6,AGTGGCACGTGGGTTA,-0.837
7,AATATCACGTGTGTAG,0.711
8,TTTGACACGTGCGAGG,0.0837
9,CGAAACACGTGGGTAT,-0.126
10,TCATTCACGTGGAGTG,1
11,TCGGTCACGTGAGAAG,1.63
12,TTTGACACGTGTCAGT,0.586
13,TTGCGCACGTGGACGG,-0.879
14,AGTGTCACGTGAATAT,1.21
15,CTGGACACGTGTGGCA,1.09
16,GGTACCACGTGGAGTA,0.209
17,GTAGGCACGTGGGGTT,-0.669
18,TTTGTCACGTGTCTCA,-0.0418
19,AGGTACACGTGGGCGA,-0.711
20,TAAATCACGTGTCTGT,0.418
21,CACGACACGTGTGGTT,0.795
22,AGTGGCACGTGTGGCG,-0.167
23,GAGGTCACGTGAGCAG,1.59
24,ACGTTCACGTGTGTTG,1.42
25,GTTCACACGTGCGGGG,0.335
26,GTGTACACGTGTGCGA,0.293

row,Sequence,relative binding free energy [kJ/mol]
1,TCTTTCACGTGTTTGA,1
2,TGAAGCACGTGGTGCA,-0.544
3,AGGGACACGTGTGCGA,-0.209
4,GTATGCACGTGGGGTC,-0.586
5,TTTTTCACGTGCGTGA,0.711
6,GGTTGCACGTGACGTT,0.837
7,GGGTCCACGTGGAGTG,0.0418
8,TGTTACACGTGTGGGT,1.09
9,TGAGACACGTGGTCAG,-0.377
10,ATGTTCACGTGGGTCA,0.418
11,AAATTCACGTGTGCGT,0.628
12,ATGAACACGTGGAGGG,-0.167
13,CTTTACACGTGTAATT,0.544
14,TGGAGCACGTGTGCGC,0
15,GAGGACACGTGGTATG,-0.0837
16,TTGATCACGTGCTCGG,0.544
17,CATTACACGTGATGGG,0.711
18,GGGGTCACGTGGTTGA,0.418
19,GGGAGCACGTGGAGGA,-0.0418
20,TTTACCACGTGTGGAT,0.126
21,AGATGCACGTGCGGTT,0
22,AGGTACACGTGGAGTT,0.628
23,TCTAGCACGTGGGGTT,-0.502
24,AATTGCACGTGATAAG,0.711
25,AGAAGCACGTGGGAAT,-0.418
26,AACGTCACGTGAGAGG,1.59

row,Sequence,relative binding free energy [kJ/mol]
1,CATGTCACGTGTTGTA,0.586
2,TGACTCACGTGGTTGC,1.21
3,GTGCGCACGTGGAGTC,0.167
4,GGTTGCACGTGAGCTT,0.753
5,GGGTTCACGTGGGCAT,0.753
6,TAGATCACGTGTTCGT,0.167
7,TAGCGCACGTGGAGTG,-0.586
8,GGTGTCACGTGTTCGC,0.586
9,AGTGCCACGTGGAGGT,-0.502
10,TTGACCACGTGTTGGT,-0.251
11,AGCGTCACGTGGGTAG,-0.377
12,GGTAACACGTGGTTTT,0.544
13,TGGGGCACGTGGGCGT,-1.05
14,TATTCCACGTGGATGA,0.628
15,TGGGGCACGTGCGGTC,-0.544
16,ATGGTCACGTGCAGTA,0.502
17,GATTTCACGTGACAGG,1.63
18,TGATTCACGTGAGATA,1.8
19,AATTTCACGTGAACGT,1.34
20,GAAGTCACGTGGTAGA,0.879
21,CTATACACGTGAGGTT,0.879
22,CAGAGCACGTGCGTGG,-0.669
23,AGCAGCACGTGGCGTT,-0.209
24,AGGGGCACGTGAGTCA,-0.0418
25,CGGTACACGTGTTTGC,0.251
26,TTAGTCACGTGGTCGA,0.167

row,Sequence,relative binding free energy [kJ/mol]
1,TACGCCACGTGGGGTT,-0.377
2,TTTGGCACGTGGCGCG,-1.3
3,GTTATCACGTGCAAGG,0.46
4,GTGAACACGTGAGCGG,0.962
5,TGGTCCACGTGTTGCG,0.586
6,GAGAGCACGTGGTAGA,-0.46
7,AGAGTCACGTGTGATA,0.418
8,TTTGACACGTGCGGAG,0.0837
9,GTGCGCACGTGTCGAG,0.0418
10,CTGTTCACGTGCGGGG,0.962
11,GTAAGCACGTGCTGTG,-0.209
12,TATCGCACGTGGCGGG,-0.586
13,GCTGGCACGTGTAAGG,0.126
14,TTCGTCACGTGTTATA,0.669
15,GGAGTCACGTGGTGCC,0.711
16,TGGGGCACGTGGAGCG,-0.293
17,TTTCTCACGTGTGTAA,0.669
18,TCACGCACGTGGTTGG,-0.502
19,GGCGTCACGTGTTGCG,0.167
20,TTATGCACGTGGAAAA,0.46
21,GAAGACACGTGGTTAG,0.0418
22,GATTGCACGTGGTACT,0.0418
